This continues a long series; more values of the same kind are listed elsewhere.
Assay: Single dose PK in healthy subjects (Cohorts 1, 2, S1 and S2), plasma
Assay type: in vivo, human
Settings: for Plasma Concentration of Cmpd A, Maximum / Plasma Concentration of Cmpd A, Mean / Plasma Concentration of Cmpd A, Median / Plasma Concentration of Cmpd A, Minimum / Plasma Concentration of Cmpd A, Q1 / Plasma Concentration of Cmpd A, Q3: 180 mg single IV infusion
Protocol: This study investigates (i) the safety and tolerability of Compound A (methyl (2R,3S)-3-((methylsulfonyl)amino)-2-(((cis-4-phenylcyclohexyl)oxy)methyl)piperidine-1-carboxylate) when a single dose given as a 9 hour continuous IV infusion is administered to healthy adults, healthy elderly subjects and patients with narcolepsy type 1 (NT1); (ii) the pharmacokinetics of Compound A when a single dose given as a 9 hour continuous IV infusion is administered to healthy adults, healthy elderly subjects and patients with narcolepsy type 1; and (iii) the pharmacodynamics (PD) effects of Compound A, primarily by evaluation of the sleep latency on MWT when a single dose given as a 9 hour continuous IV infusion is administered to patients with narcolepsy type 1.
Pharmacokinetics: Concentrations of Compound A in plasma, and CSF, and pharmacokinetics parameters.
On average, the time to reach the plateau appeared to be approximately 3 to 4 hours after the start of infusion. […] After switching off the IV infusion, Compound A plasma concentrations declined rapidly and in a biphasic manner with a mean terminal disposition phase t1/2z ranging approximately from 3.4 to 5.1 hours across all doses. […] Table 5 provides a summary of plasma concentrations of Compound A after a single IV infusion in healthy subjects. Table 6 provides a summary of pharmacokinetic parameters of Compound A after a single IV infusion in healthy subjects.

[1] = 112 mg, 2 hr After End of Infusion
[2] = 112 mg, 3 hr After End of Infusion
[3] = 112 mg, 4 hr After End of Infusion
[4] = 112 mg, 6 hr After End of Infusion
[5] = 112 mg, 10 hr After End of Infusion
[6] = 112 mg, 15 hr After End of Infusion
[7] = 134.4 mg, 0.33 hr After End of Infusion
[8] = 134.4 mg, 0.5 hr After End of Infusion
[9] = 134.4 mg, 0.75 hr After End of Infusion
[10] = 134.4 mg, 1 hr After End of Infusion
[11] = 134.4 mg, 1.5 hr After End of Infusion
[12] = 134.4 mg, 2 hr After End of Infusion
[13] = 134.4 mg, 3 hr After End of Infusion
[14] = 134.4 mg, 4 hr After End of Infusion
[15] = 134.4 mg, 6 hr After End of Infusion
[16] = 134.4 mg, 10 hr After End of Infusion
[17] = 134.4 mg, 15 hr After End of Infusion

COC(=O)N1CCC[C@H](NS(C)(=O)=O)[C@@H]1CO[C@H]1CC[C@@H](c2ccccc2)CC1 [Compound A, methyl (2R,3S)-3-((methylsulfonyl)amino)-2-(((cis-4-phenylcyclohexyl)oxy)methyl)piperidine-1-carboxylate]
Plasma concentration, Q1 [1]: 33.00 ng/mL
Plasma concentration, Q3 [1]: 49.20 ng/mL
Plasma concentration, Maximum [2]: 53.3 ng/mL
Plasma concentration, Mean [2]: 38.13 ng/mL
Plasma concentration, Median [2]: 39.25 ng/mL
Plasma concentration, Minimum [2]: 19.7 ng/mL
Plasma concentration, Q1 [2]: 30.00 ng/mL
Plasma concentration, Q3 [2]: 47.30 ng/mL
Plasma concentration, Maximum [3]: 48.3 ng/mL
Plasma concentration, Mean [3]: 30.68 ng/mL
Plasma concentration, Median [3]: 30.45 ng/mL
Plasma concentration, Minimum [3]: 17.4 ng/mL
Plasma concentration, Q1 [3]: 19.70 ng/mL
Plasma concentration, Q3 [3]: 37.80 ng/mL
Plasma concentration, Maximum [4]: 29.0 ng/mL
Plasma concentration, Mean [4]: 17.42 ng/mL
Plasma concentration, Median [4]: 17.25 ng/mL
Plasma concentration, Minimum [4]: 9.58 ng/mL
Plasma concentration, Q1 [4]: 9.840 ng/mL
Plasma concentration, Q3 [4]: 21.60 ng/mL
Plasma concentration, Maximum [5]: 17.3 ng/mL
Plasma concentration, Mean [5]: 8.967 ng/mL
Plasma concentration, Median [5]: 9.435 ng/mL
Plasma concentration, Minimum [5]: 3.40 ng/mL
Plasma concentration, Q1 [5]: 4.130 ng/mL
Plasma concentration, Q3 [5]: 10.10 ng/mL
Plasma concentration, Maximum [6]: 9.32 ng/mL
Plasma concentration, Mean [6]: 3.897 ng/mL
Plasma concentration, Median [6]: 3.055 ng/mL
Plasma concentration, Minimum [6]: 1.30 ng/mL
Plasma concentration, Q1 [6]: 1.610 ng/mL
Plasma concentration, Q3 [6]: 5.040 ng/mL
Plasma concentration, Mean (112 mg, Predose): 0.000 ng/mL
Plasma concentration, Maximum [7]: 183 ng/mL
Plasma concentration, Mean [7]: 140.5 ng/mL
Plasma concentration, Median [7]: 138.0 ng/mL
Plasma concentration, Minimum [7]: 105 ng/mL
Plasma concentration, Q1 [7]: 122.0 ng/mL
Plasma concentration, Q3 [7]: 157.0 ng/mL
Plasma concentration, Maximum [8]: 150 ng/mL
Plasma concentration, Mean [8]: 123.2 ng/mL
Plasma concentration, Median [8]: 127.0 ng/mL
Plasma concentration, Minimum [8]: 101 ng/mL
Plasma concentration, Q1 [8]: 102.0 ng/mL
Plasma concentration, Q3 [8]: 132.0 ng/mL
Plasma concentration, Maximum [9]: 135 ng/mL
Plasma concentration, Mean [9]: 108.7 ng/mL
Plasma concentration, Median [9]: 112.5 ng/mL
Plasma concentration, Minimum [9]: 82.4 ng/mL
Plasma concentration, Q1 [9]: 83.70 ng/mL
Plasma concentration, Q3 [9]: 126.0 ng/mL
Plasma concentration, Maximum [10]: 118 ng/mL
Plasma concentration, Mean [10]: 92.57 ng/mL
Plasma concentration, Median [10]: 90.65 ng/mL
Plasma concentration, Minimum [10]: 75.2 ng/mL
Plasma concentration, Q1 [10]: 78.90 ng/mL
Plasma concentration, Q3 [10]: 102.0 ng/mL
Plasma concentration, Maximum [11]: 115 ng/mL
Plasma concentration, Mean [11]: 81.10 ng/mL
Plasma concentration, Median [11]: 75.80 ng/mL
Plasma concentration, Minimum [11]: 65.4 ng/mL
Plasma concentration, Q1 [11]: 66.20 ng/mL
Plasma concentration, Q3 [11]: 88.40 ng/mL
Plasma concentration, Maximum [12]: 81.5 ng/mL
Plasma concentration, Mean [12]: 56.18 ng/mL
Plasma concentration, Median [12]: 52.20 ng/mL
Plasma concentration, Minimum [12]: 42.1 ng/mL
Plasma concentration, Q1 [12]: 44.70 ng/mL
Plasma concentration, Q3 [12]: 64.40 ng/mL
Plasma concentration, Maximum [13]: 62.0 ng/mL
Plasma concentration, Mean [13]: 41.53 ng/mL
Plasma concentration, Median [13]: 40.60 ng/mL
Plasma concentration, Minimum [13]: 22.2 ng/mL
Plasma concentration, Q1 [13]: 32.50 ng/mL
Plasma concentration, Q3 [13]: 51.30 ng/mL
Plasma concentration, Maximum [14]: 46.7 ng/mL
Plasma concentration, Mean [14]: 33.52 ng/mL
Plasma concentration, Median [14]: 33.20 ng/mL
Plasma concentration, Minimum [14]: 18.5 ng/mL
Plasma concentration, Q1 [14]: 27.80 ng/mL
Plasma concentration, Q3 [14]: 41.70 ng/mL
Plasma concentration, Maximum [15]: 30.5 ng/mL
Plasma concentration, Mean [15]: 19.28 ng/mL
Plasma concentration, Median [15]: 18.25 ng/mL
Plasma concentration, Minimum [15]: 9.56 ng/mL
Plasma concentration, Q1 [15]: 16.10 ng/mL
Plasma concentration, Q3 [15]: 23.00 ng/mL
Plasma concentration, Maximum [16]: 21.8 ng/mL
Plasma concentration, Mean [16]: 10.45 ng/mL
Plasma concentration, Median [16]: 9.030 ng/mL
Plasma concentration, Minimum [16]: 5.43 ng/mL
Plasma concentration, Q1 [16]: 6.380 ng/mL
Plasma concentration, Q3 [16]: 11.00 ng/mL
Plasma concentration, Maximum [17]: 10.9 ng/mL
Plasma concentration, Mean [17]: 4.465 ng/mL
Plasma concentration, Median [17]: 3.635 ng/mL
Plasma concentration, Minimum [17]: 1.54 ng/mL
Plasma concentration, Q1 [17]: 2.300 ng/mL
Plasma concentration, Q3 [17]: 4.780 ng/mL
Plasma Concentration of Cmpd A, Maximum (0.33 hr After End of Infusion): 201 ng/mL
Plasma Concentration of Cmpd A, Mean (0.33 hr After End of Infusion): 161.2 ng/mL
Plasma Concentration of Cmpd A, Median (0.33 hr After End of Infusion): 157.5 ng/mL
Plasma Concentration of Cmpd A, Minimum (0.33 hr After End of Infusion): 141 ng/mL
Plasma Concentration of Cmpd A, Q1 (0.33 hr After End of Infusion): 144.0 ng/mL
Plasma Concentration of Cmpd A, Q3 (0.33 hr After End of Infusion): 166.0 ng/mL
Plasma Concentration of Cmpd A, Maximum (0.5 hr After End of Infusion): 173 ng/mL
Plasma Concentration of Cmpd A, Mean (0.5 hr After End of Infusion): 138.8 ng/mL
Plasma Concentration of Cmpd A, Median (0.5 hr After End of Infusion): 137.5 ng/mL
Plasma Concentration of Cmpd A, Minimum (0.5 hr After End of Infusion): 117 ng/mL
Plasma Concentration of Cmpd A, Q1 (0.5 hr After End of Infusion): 120.0 ng/mL
Plasma Concentration of Cmpd A, Q3 (0.5 hr After End of Infusion): 148.0 ng/mL
Plasma Concentration of Cmpd A, Maximum (0.75 hr After End of Infusion): 134 ng/mL
Plasma Concentration of Cmpd A, Mean (0.75 hr After End of Infusion): 124.7 ng/mL
Plasma Concentration of Cmpd A, Median (0.75 hr After End of Infusion): 128.0 ng/mL
Plasma Concentration of Cmpd A, Minimum (0.75 hr After End of Infusion): 101 ng/mL
Plasma Concentration of Cmpd A, Q1 (0.75 hr After End of Infusion): 127.0 ng/mL
Plasma Concentration of Cmpd A, Q3 (0.75 hr After End of Infusion): 130.0 ng/mL
Plasma Concentration of Cmpd A, Maximum (1 hr After End of Infusion): 120 ng/mL

— US20220339143A1, “TAK-925 FOR USE IN TREATING NARCOLEPSY” (Takeda Pharmaceutical Company Limited, priority 2019, published 2022)
